Paper PMC8161014
No constants are given. Whether binding was seen depends on the method and setting. In cells and extracts the contact can be indirect. Some entries that bind do so weakly or less than the wild type. For some of these results: Where a sequence is shown, tags or fusion partners need not be part of it.

Amino acid sequences for entries named in this document (tags omitted). A change or cut given only in a name is not applied to a line headed by its entry. Chains listed by the source or under a name are the forms on record and can include a tag or linker. Residues count along the entry.
StrepII-FLAG-tagged DCAF12 (∆1–38) (Q5T6F0, residues 39-453): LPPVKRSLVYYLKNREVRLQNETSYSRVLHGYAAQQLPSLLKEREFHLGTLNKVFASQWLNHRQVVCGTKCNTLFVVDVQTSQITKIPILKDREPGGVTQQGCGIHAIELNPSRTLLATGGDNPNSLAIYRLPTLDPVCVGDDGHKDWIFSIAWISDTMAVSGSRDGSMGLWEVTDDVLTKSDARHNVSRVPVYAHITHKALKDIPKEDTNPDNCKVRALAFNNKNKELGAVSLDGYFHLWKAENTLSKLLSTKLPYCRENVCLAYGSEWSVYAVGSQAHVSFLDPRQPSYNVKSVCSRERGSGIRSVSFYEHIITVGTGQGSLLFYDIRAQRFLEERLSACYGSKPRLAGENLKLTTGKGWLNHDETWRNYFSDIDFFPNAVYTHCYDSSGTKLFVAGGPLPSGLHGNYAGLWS
UniProt Q16531: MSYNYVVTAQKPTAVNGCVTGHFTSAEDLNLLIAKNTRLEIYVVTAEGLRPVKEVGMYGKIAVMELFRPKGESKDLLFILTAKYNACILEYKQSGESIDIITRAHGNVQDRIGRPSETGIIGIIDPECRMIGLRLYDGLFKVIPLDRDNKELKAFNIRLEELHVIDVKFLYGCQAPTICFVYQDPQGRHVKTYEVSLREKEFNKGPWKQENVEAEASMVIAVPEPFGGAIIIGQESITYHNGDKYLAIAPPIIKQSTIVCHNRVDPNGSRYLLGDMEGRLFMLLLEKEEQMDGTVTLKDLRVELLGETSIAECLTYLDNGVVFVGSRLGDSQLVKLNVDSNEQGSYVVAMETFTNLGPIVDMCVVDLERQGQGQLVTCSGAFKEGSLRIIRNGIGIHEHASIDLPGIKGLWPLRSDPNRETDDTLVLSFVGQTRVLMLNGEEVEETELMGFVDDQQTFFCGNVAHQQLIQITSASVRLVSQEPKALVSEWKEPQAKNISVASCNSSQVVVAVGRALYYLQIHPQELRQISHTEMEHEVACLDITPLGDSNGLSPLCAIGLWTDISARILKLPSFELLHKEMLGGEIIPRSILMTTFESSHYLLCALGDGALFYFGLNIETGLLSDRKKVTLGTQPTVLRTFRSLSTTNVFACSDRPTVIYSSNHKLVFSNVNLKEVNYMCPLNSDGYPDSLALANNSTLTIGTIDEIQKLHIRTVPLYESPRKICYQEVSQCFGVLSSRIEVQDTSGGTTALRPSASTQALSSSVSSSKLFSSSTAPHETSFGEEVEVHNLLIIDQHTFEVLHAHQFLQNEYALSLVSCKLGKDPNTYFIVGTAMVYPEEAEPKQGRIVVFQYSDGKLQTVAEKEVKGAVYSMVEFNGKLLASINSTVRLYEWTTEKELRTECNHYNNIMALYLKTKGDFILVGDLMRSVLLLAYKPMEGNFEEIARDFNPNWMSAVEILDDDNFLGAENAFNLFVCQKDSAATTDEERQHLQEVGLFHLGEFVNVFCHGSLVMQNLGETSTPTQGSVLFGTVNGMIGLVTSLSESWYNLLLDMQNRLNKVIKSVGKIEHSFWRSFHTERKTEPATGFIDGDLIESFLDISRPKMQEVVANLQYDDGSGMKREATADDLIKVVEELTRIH
UniProt Q13619: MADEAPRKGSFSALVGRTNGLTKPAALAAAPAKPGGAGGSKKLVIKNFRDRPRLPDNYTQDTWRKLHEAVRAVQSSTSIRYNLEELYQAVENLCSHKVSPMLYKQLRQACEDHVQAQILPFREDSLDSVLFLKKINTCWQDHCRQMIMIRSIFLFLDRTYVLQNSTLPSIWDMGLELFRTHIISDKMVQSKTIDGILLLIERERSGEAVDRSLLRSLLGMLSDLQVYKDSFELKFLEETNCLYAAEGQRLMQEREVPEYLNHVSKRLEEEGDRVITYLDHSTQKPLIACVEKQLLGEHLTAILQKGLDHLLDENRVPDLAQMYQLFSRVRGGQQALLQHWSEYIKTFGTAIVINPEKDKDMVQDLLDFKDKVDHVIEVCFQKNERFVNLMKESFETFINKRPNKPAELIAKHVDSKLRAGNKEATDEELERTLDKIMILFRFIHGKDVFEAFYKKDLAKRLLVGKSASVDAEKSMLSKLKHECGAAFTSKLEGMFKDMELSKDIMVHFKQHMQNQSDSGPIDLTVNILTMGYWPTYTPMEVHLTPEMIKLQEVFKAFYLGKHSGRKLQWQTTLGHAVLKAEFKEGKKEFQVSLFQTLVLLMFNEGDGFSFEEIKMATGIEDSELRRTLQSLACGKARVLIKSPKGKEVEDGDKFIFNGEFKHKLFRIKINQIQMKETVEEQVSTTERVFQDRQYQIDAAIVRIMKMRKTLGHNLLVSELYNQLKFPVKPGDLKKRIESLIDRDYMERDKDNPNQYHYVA

Experiments:
[1] = target: T1, HA-tagged MOV10 (E1002X) (human) (UniProt Q9HCE1); experiment: co-IP; HEK293T co-transfected with StrepII-FLAG-tagged DCAF12 and HA-tagged MOV10 (WT) or (E1002X); MLN4924 for the last 6 h; anti-HA IP of whole-cell lysates, immunoblot
T1 sequence: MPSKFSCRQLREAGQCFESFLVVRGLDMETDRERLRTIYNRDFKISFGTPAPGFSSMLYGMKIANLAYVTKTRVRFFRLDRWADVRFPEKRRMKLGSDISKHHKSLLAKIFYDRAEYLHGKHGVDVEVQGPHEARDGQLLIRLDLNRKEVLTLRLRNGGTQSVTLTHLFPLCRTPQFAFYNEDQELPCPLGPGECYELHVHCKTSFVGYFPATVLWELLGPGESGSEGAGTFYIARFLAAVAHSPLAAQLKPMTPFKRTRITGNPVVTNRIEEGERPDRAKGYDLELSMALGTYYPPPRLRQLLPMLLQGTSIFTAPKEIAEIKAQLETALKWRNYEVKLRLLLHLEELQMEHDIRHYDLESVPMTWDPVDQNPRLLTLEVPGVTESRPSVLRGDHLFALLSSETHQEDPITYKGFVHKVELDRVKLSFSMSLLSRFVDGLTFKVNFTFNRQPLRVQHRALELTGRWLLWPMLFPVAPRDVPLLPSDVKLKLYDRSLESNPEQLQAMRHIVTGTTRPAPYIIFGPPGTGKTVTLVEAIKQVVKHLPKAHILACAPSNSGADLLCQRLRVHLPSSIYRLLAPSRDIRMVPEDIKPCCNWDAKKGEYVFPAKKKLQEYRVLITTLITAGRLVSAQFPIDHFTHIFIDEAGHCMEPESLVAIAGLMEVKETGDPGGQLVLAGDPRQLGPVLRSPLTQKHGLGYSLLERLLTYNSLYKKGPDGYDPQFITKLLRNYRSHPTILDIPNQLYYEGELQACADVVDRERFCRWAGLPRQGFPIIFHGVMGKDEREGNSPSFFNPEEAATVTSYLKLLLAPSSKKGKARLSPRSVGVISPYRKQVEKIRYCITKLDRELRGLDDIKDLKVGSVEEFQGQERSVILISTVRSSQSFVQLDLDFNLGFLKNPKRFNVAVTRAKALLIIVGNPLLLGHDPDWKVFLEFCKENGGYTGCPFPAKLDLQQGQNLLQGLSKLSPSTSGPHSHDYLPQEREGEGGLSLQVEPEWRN

[2] = target: T2, HA-tagged MOV10 (WT) (human) (UniProt Q9HCE1); experiment: as above
T2 sequence: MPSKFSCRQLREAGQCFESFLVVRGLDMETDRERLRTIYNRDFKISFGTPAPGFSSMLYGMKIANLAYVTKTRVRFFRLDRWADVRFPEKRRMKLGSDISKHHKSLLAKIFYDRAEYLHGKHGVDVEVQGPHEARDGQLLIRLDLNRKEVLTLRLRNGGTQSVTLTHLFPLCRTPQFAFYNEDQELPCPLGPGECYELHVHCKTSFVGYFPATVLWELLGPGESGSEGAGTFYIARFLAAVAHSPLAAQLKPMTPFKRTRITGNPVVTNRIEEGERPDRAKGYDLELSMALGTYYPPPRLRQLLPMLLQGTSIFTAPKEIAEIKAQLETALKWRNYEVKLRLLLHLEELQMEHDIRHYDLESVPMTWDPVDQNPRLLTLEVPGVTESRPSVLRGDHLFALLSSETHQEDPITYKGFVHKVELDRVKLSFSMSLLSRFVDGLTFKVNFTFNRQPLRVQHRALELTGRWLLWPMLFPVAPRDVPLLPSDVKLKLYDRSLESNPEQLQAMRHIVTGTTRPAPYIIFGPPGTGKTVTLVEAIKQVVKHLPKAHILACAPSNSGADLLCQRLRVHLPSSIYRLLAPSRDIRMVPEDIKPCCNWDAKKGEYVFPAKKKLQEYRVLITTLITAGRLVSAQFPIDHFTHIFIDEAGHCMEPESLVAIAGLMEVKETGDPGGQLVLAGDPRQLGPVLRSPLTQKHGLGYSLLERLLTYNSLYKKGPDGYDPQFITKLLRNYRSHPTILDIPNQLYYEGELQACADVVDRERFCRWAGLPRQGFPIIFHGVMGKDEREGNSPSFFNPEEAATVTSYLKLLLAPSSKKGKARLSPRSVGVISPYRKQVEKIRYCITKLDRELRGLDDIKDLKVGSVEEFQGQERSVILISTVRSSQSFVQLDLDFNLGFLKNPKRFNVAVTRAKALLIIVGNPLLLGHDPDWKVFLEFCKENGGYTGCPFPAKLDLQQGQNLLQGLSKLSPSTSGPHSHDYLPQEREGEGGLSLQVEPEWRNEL

[3] = target: StrepII-FLAG-tagged DCAF12 (∆1–38) (human) (UniProt Q5T6F0); experiment: pull-down; HEK293 cells with doxycycline-inducible HA-tagged MOV10 (WT) or (E1002X) transfected with StrepII-FLAG-tagged DCAF12 (WT) or (∆1–38); DOX 100 ng/mL 24 h, MLN4924 for the last 6 h; affinity purification of whole-cell lysates, immunoblot
[4] = target: StrepII-FLAG-tagged DCAF12 (WT) (human) (UniProt Q5T6F0); experiment: as above
[5] = target: StrepII-FLAG-tagged DCAF12 (WT) (human) (UniProt Q5T6F0); experiment: pull-down; StrepII-FLAG-tagged substrate receptors transfected into HEK293T, MLN4924 for 6 h before harvesting; whole-cell lysates subjected to affinity purification with Strep-TactinXT resin; eluates immunoblotted for endogenous proteins

endogenous DDB1 (DNA damage-binding protein 1) (from UniProt Q16531 1-1140)
binding [1]: no binding | binding [2]: binds

StrepII-FLAG-tagged DCAF12 (WT) (from UniProt Q5T6F0 1-453)
binding [1]: no binding | binding [2]: binds

endogenous CUL4A (from UniProt Q13619 1-759)
binding [1]: no binding | binding [2]: binds

B1: HA-tagged MOV10 (WT) (protein, UniProt Q9HCE1 1-1003)
chain: T2 sequence
binding [3]: binds | binding [4]: binds

B2: endogenous GART (glycinamide ribonucleotide transformylase) (protein, UniProt P22102 1-1010)
chain: MAARVLIIGSGGREHTLAWKLAQSHHVKQVLVAPGNAGTACSEKISNTAISISDHTALAQFCKEKKIEFVVVGPEAPLAAGIVGNLRSAGVQCFGPTAEAAQLESSKRFAKEFMDRHGIPTAQWKAFTKPEEACSFILSADFPALVVKASGLAAGKGVIVAKSKEEACKAVQEIMQEKAFGAAGETIVIEELLDGEEVSCLCFTDGKTVAPMPPAQDHKRLLEGDGGPNTGGMGAYCPAPQVSNDLLLKIKDTVLQRTVDGMQQEGTPYTGILYAGIMLTKNGPKVLEFNCRFGDPECQVILPLLKSDLYEVIQSTLDGLLCTSLPVWLENHTALTVVMASKGYPGDYTKGVEITGFPEAQALGLEVFHAGTALKNGKVVTHGGRVLAVTAIRENLISALEEAKKGLAAIKFEGAIYRKDVGFRAIAFLQQPRSLTYKESGVDIAAGNMLVKKIQPLAKATSRSGCKVDLGGFAGLFDLKAAGFKDPLLASGTDGVGTKLKIAQLCNKHDTIGQDLVAMCVNDILAQGAEPLFFLDYFSCGKLDLSVTEAVVAGIAKACGKAGCALLGGETAEMPDMYPPGEYDLAGFAVGAMERDQKLPHLERITEGDVVVGIASSGLHSNGFSLVRKIVAKSSLQYSSPAPDGCGDQTLGDLLLTPTRIYSHSLLPVLRSGHVKAFAHITGGGLLENIPRVLPEKLGVDLDAQTWRIPRVFSWLQQEGHLSEEEMARTFNCGVGAVLVVSKEQTEQILRDIQQHKEEAWVIGSVVARAEGSPRVKVKNLIESMQINGSVLKNGSLTNHFSFEKKKARVAVLISGTGSNLQALIDSTREPNSSAQIDIVISNKAAVAGLDKAERAGIPTRVINHKLYKNRVEFDSAIDLVLEEFSIDIVCLAGFMRILSGPFVQKWNGKMLNIHPSLLPSFKGSNAHEQALETGVTVTGCTVHFVAEDVDAGQIILQEAVPVKRGDTVATLSERVKLAEHKIFPAALQLVASGTVQLGENGKICWVKEE
binding [5]: binds

B3: endogenous ADAR (adenosine deaminase acting on RNA) (protein, UniProt P55265 1-1226)
chain: MNPRQGYSLSGYYTHPFQGYEHRQLRYQQPGPGSSPSSFLLKQIEFLKGQLPEAPVIGKQTPSLPPSLPGLRPRFPVLLASSTRGRQVDIRGVPRGVHLRSQGLQRGFQHPSPRGRSLPQRGVDCLSSHFQELSIYQDQEQRILKFLEELGEGKATTAHDLSGKLGTPKKEINRVLYSLAKKGKLQKEAGTPPLWKIAVSTQAWNQHSGVVRPDGHSQGAPNSDPSLEPEDRNSTSVSEDLLEPFIAVSAQAWNQHSGVVRPDSHSQGSPNSDPGLEPEDSNSTSALEDPLEFLDMAEIKEKICDYLFNVSDSSALNLAKNIGLTKARDINAVLIDMERQGDVYRQGTTPPIWHLTDKKRERMQIKRNTNSVPETAPAAIPETKRNAEFLTCNIPTSNASNNMVTTEKVENGQEPVIKLENRQEARPEPARLKPPVHYNGPSKAGYVDFENGQWATDDIPDDLNSIRAAPGEFRAIMEMPSFYSHGLPRCSPYKKLTECQLKNPISGLLEYAQFASQTCEFNMIEQSGPPHEPRFKFQVVINGREFPPAEAGSKKVAKQDAAMKAMTILLEEAKAKDSGKSEESSHYSTEKESEKTAESQTPTPSATSFFSGKSPVTTLLECMHKLGNSCEFRLLSKEGPAHEPKFQYCVAVGAQTFPSVSAPSKKVAKQMAAEEAMKALHGEATNSMASDNQPEGMISESLDNLESMMPNKVRKIGELVRYLNTNPVGGLLEYARSHGFAAEFKLVDQSGPPHEPKFVYQAKVGGRWFPAVCAHSKKQGKQEAADAALRVLIGENEKAERMGFTEVTPVTGASLRRTMLLLSRSPEAQPKTLPLTGSTFHDQIAMLSHRCFNTLTNSFQPSLLGRKILAAIIMKKDSEDMGVVVSLGTGNRCVKGDSLSLKGETVNDCHAEIISRRGFIRFLYSELMKYNSQTAKDSIFEPAKGGEKLQIKKTVSFHLYISTAPCGDGALFDKSCSDRAMESTESRHYPVFENPKQGKLRTKVENGEGTIPVESSDIVPTWDGIRLGERLRTMSCSDKILRWNVLGLQGALLTHFLQPIYLKSVTLGYLFSQGHLTRAICCRVTRDGSAFEDGLRHPFIVNHPKVGRVSIYDSKRQSGKTKETSVNWCLADGYDLEILDGTRGTVDGPRNELSRVSKKNIFLLFKKLCSFRYRRDLLRLSYGEAKKAARDYETAKNYFKKGLKDMGYGNWISKPQEEKNFYLCPV
binding [5]: binds
